This note sets out measurements from paper PMC7819943, “Rice protein-binding microarrays: a tool to detect cis-acting elements near promoter regions in rice”.

The list shows a part of the results.

The assay concerns the target T1, OsWOX13 (Oryza sativa, UniProt Q5QMM3 1-267).
T1 sequence: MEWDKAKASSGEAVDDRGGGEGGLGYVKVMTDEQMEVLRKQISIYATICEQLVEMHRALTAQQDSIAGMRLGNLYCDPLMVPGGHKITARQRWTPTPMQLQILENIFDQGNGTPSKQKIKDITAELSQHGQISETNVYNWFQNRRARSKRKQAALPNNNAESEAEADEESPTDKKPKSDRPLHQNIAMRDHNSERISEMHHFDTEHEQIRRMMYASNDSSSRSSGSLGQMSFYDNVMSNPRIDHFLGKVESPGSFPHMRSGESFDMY
Kind of assay: protein-binding microarray (RPBM); PBS, 2% BSA, 51.3 ng/ul salmon testes DNA, 50 uM zinc acetate, 200 nM TF, 25 C, 1 h; high values mean tight binding. Particulars: protein: recombinant; tags: N-terminal polyhistidine and DsRed monomer fusion (pET32a); label: CyDye5-dUTP incorporated in the synthesized complementary strand; 3' TTTTT single-stranded linker to array surface; dsDNA, one strand shown. The essentials:
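Transcription factors were made in E. coli BL21-CodonPlus as N-terminal fusions to a polyhistidine tag and DsRed, then purified on Ni–NTA. After primer extension with Cy5-dUTP and blocking with 2% BSA, a custom Agilent array was exposed for 1 h at 25 °C to 200 nM protein in PBS, 2% BSA, salmon testes DNA and 50 µM zinc acetate. Washed arrays were scanned on an Axon 4000B, and the binding signal is per-feature fluorescence intensity in arbitrary units.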
Turning to “TTTCGTGATTTTCCCCGGTTGGCCACTACTTTTGCGATTTCGGAGTCACCTAGTGCAG”, the binding signal is 9240 fluorescence intensity (a.u.).

Take “ATGACTGTGAAGTCTGACTGTCTGAGTGTCTGCTTCATCACGGAGTCACCTAGTGCAG”: the binding signal is 5010 fluorescence intensity (a.u.).

“AGTTTAATTTGGAGCACACATTTCAGCTCACCACTGCTAGCGGAGTCACCTAGTGCAG”: the binding signal is 13300 fluorescence intensity (a.u.). With “ATTCTGATTATGCTCATGCTCTTTTAGGTGAGGAGTTGTCCGGAGTCACCTAGTGCAG”, the binding signal is 15600 fluorescence intensity (a.u.). As for “CAAAATTGATGGCAGACAGTGAAAATTCATACCCGGCGCTCGGAGTCACCTAGTGCAG”, the binding signal is 45600 fluorescence intensity (a.u.).

Take “AGTTCAATCAAACTTGGATGGAGAAATGACCAAAAGAAAACGGAGTCACCTAGTGCAG”: the binding signal is 5550 fluorescence intensity (a.u.). Next, “TATATAATAATTACAATGTAATTGTAGGTAAGTTATAGAGCGGAGTCACCTAGTGCAG”: 12300 fluorescence intensity (a.u.); “GCAGAAATGCAATCAATTAAGCACTTGTAGGTCGTCTGACCGGAGTCACCTAGTGCAG”: 32100 fluorescence intensity (a.u.); “TAGCAGTATTAATTAATTTGCAAAAGTTATAATTATCTCACGGAGTCACCTAGTGCAG”: 12100 fluorescence intensity (a.u.).

With “TCCCTGAATTTTAGGAGTGATTGGACCTAAAGTTGAGGAGCGGAGTCACCTAGTGCAG”, the binding signal was 17200 fluorescence intensity (a.u.).

“ATGAGTGAAATTAGAGCACCCTGTAAACATATCCTCATTTCGGAGTCACCTAGTGCAG”: the binding signal was 8270 fluorescence intensity (a.u.). On to “TAAAATATAAATTTTATATAGTTCAATCAAACTCGGATGGCGGAGTCACCTAGTGCAG”, for which the binding signal was 7210 fluorescence intensity (a.u.). Under “GACCTCTTAATTGAAAATTTTGATCTCTGACCTGTGATCTCGGAGTCACCTAGTGCAG” stands 40400 fluorescence intensity (a.u.). “GCTTTCACACGGATTTTAATTATTCTAGGCATAATTTAAACGGAGTCACCTAGTGCAG”: the binding signal is 3800 fluorescence intensity (a.u.).

Regarding “CAATATATGTTGTGGTAATTGGATGTAAATTGTACTAGAACGGAGTCACCTAGTGCAG”, the binding signal was 9800 fluorescence intensity (a.u.). For “TCACCATAATAAATTGAACATAAATTAGTTTAACCGAGGACGGAGTCACCTAGTGCAG”, the binding signal was 21600 fluorescence intensity (a.u.). For “ATACTCGATTATGGATTTTAATTATGAACAGGCAAAGTGGCGGAGTCACCTAGTGCAG”, the binding signal is 7040 fluorescence intensity (a.u.).

For the sequence “TTAATGCAGACTAAATTGCCTATATATACCACGTCTAGCACGGAGTCACCTAGTGCAG”, the binding signal is 5510 fluorescence intensity (a.u.). Under “GCAGTAGATAGATTAGCAGGGGCAGCATCTCTCACAGTCACGGAGTCACCTAGTGCAG” stands 24600 fluorescence intensity (a.u.); under “GAAAATTAATTCAATACCTTAGACTTACTGGAAAGTACATCGGAGTCACCTAGTGCAG”, 7650 fluorescence intensity (a.u.); under “ATAATTAAGTCCTTTGATAACAAAGAACTTAATTGGGTCACGGAGTCACCTAGTGCAG”, 8270 fluorescence intensity (a.u.). Next, “TGCTAATCAAGTTCTAGAATTAGCACCTATATAACTAATTCGGAGTCACCTAGTGCAG”: 4940 fluorescence intensity (a.u.); “TCAGATATCAATTTACTCTTTCCCAATAATTTTAAGGGTACGGAGTCACCTAGTGCAG”: 13400 fluorescence intensity (a.u.). Under “TATAATTAAGAATCACAAGCATCTCATAACTTACCACCAGCGGAGTCACCTAGTGCAG” stands 8630 fluorescence intensity (a.u.). As for “ACCATGATAGAAGCTTTCAAGCACTTTGTCAAGGCTGTGGCGGAGTCACCTAGTGCAG”, the binding signal was 3850 fluorescence intensity (a.u.). For the sequence “TAGAAAATTATAAAATTATTATTTGTTTTATGTATGACACCGGAGTCACCTAGTGCAG”, the binding signal was 17500 fluorescence intensity (a.u.).

With “GTACTAGCAATTAGCAAATCATTTCTATGCATTGATTTGACGGAGTCACCTAGTGCAG”, the binding signal was 17600 fluorescence intensity (a.u.). Consider “TTGTTATTACACATTGATGAGACATCAAACTATGCTGACTCGGAGTCACCTAGTGCAG”, for which the binding signal was 4150 fluorescence intensity (a.u.). Regarding “CGTTTGATAGGCCATAGCCAATAATCTTCATGTTTCTTTCCGGAGTCACCTAGTGCAG”, the binding signal was 4470 fluorescence intensity (a.u.). With “ATAATAATTAAGTCTTCAATTTCACAATTAAAGTATTGAGCGGAGTCACCTAGTGCAG”, the binding signal was 23100 fluorescence intensity (a.u.). Under “AAATAACTGGTTTGACTGCTGCCCCAAGAAGATTTGTGTGCGGAGTCACCTAGTGCAG” stands 18100 fluorescence intensity (a.u.); under “GTCCCGTCGCAATCATGTTAACCTCATCCTCATTCGTCACCGGAGTCACCTAGTGCAG”, 7050 fluorescence intensity (a.u.); under “CGGTAAGATTGACGGTGAAGAGGCTGCGGAAAAGGAGTTCCGGAGTCACCTAGTGCAG”, 15700 fluorescence intensity (a.u.). Under “ATATATATATATATATATATATATATATTAATGAATCGCTCGGAGTCACCTAGTGCAG” stands 29500 fluorescence intensity (a.u.); under “TTTTATGAGATTATATTATAGATTTGACATTTATGGTGGACGGAGTCACCTAGTGCAG”, 6040 fluorescence intensity (a.u.). For the sequence “ACGCAATCATGCAATCATTTGCAATGAAATTTTCTGATATCGGAGTCACCTAGTGCAG”, the binding signal is 20200 fluorescence intensity (a.u.).

As for “GACCAACCATCATCAATCATCGCTAAGCCCACCTCGGAGACGGAGTCACCTAGTGCAG”, the binding signal was 9540 fluorescence intensity (a.u.). Under “TTTTATTCCTAATTGGCCGTCAATCCCATCGGTGCAGTAACGGAGTCACCTAGTGCAG” stands 19600 fluorescence intensity (a.u.); under “TCACACACTAATTAATGCCGTACAGAATGCTACGTACAGTCGGAGTCACCTAGTGCAG”, 12600 fluorescence intensity (a.u.).

In the case of “TGCAAACAACAAACTAATGCGTGATTAACCAAACGAATCACGGAGTCACCTAGTGCAG”, the binding signal is 4430 fluorescence intensity (a.u.).

Regarding “TAGTTAATCATTACATATTTGGATTGTTCACAAGCTTACCCGGAGTCACCTAGTGCAG”, the binding signal was 9620 fluorescence intensity (a.u.). Under “CTTACAAAACTAATTACATAAATAAAAGCTAATTCACGAGCGGAGTCACCTAGTGCAG” stands 7710 ± 469 fluorescence intensity (a.u.).
